T1: UNK ZnF1-3 (human, UniProt Q9C0B0 31-174)
T1 sequence: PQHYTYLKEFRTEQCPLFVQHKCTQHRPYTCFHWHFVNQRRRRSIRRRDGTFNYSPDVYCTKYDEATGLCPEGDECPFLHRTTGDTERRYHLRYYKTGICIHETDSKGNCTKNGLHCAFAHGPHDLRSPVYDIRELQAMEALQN

B1: 48573448_48573568_92_3pUTR_ENSG00000141646_ENST00000592186|human|control|control (ssRNA)
RNA: GGGAGUUCUACAGUCCGACGAUCUUUUUCUCCUUCAGCUUCUUUACCAAACUUUCAAUUGCUCUUUUUGCAAAUGUUUCACUCUCUCCACCUUGUCUAUGGCACAUCAAACUAUGCACAAUGCUCAGACAGGCAUCAUUACUUCAACAGAGGAUUGAGCAUCA
B2: chr16:49915050:49915051:+_ENSMUSG00000055447_ENSMUST00000084838|mus_hu|FALSE|FALSE (ssRNA)
RNA: GGGAGUUCUACAGUCCGACGAUCAGUAUAUAUAAUAUUACAGGGUAAUAUUUACAAAGUUAUGUUUUUUUUUAAAUAAAAAAGUACCUUGGCAAAGAUUGCAGAUAUUCAAAGCUUUAAACAGUGAUAAAUUGAUUUAAUACACAACAGAGGAUUGAGCAUCA
B3: chr19:3544227:3544228:-_ENSMUSG00000024908_ENSMUST00000113997|mus_mus|FALSE|FALSE (ssRNA)
RNA: GGGAGUUCUACAGUCCGACGAUCAAAGAAAUGUUUUCUUCUCUGUGGCUCCUUGCCCAUUACAGGUUAUCCUGGUGACAGCUAUCUUCCAAAUUACAUUAGCAGAUUAGCAGAAGUAUGAAAGGAUAUUGUAUGAAACAGAAGCAACAGAGGAUUGAGCAUCA
B4: chr19:8913615:8913616:-_ENSMUSG00000071658_ENSMUST00000096259|mus_hu|mus_mus_mus_hu_False|48_68 (ssRNA)
RNA: GGGAGUUCUACAGUCCGACGAUCAGGGUACCAAAACCUUCUGCCUGAAAUGGGUGCCCCACCCAGUCAGGACUUGGAGCUGAAAGUAUCCGUAGCAGAAGCAGUGACUAUACGAAAGGAGGCCCCUGGGGAGGGCCAGGCCAGCAACAGAGGAUUGAGCAUCA
B5: chr11:102151369:102151370:-_ENSMUSG00000059995_ENSMUST00000137387|mus_mus|motif|central (ssRNA)
RNA: GGGAGUUCUACAGUCCGACGAUCUAUGCUUGGUAGUGGGGCCGGCCCGAGAACCUUCUUUCCCCCUCUAGCGAGAAGGCGGUGGAGGGCCAAGGACAGAGGGGCCCAGGCUCCAAGGAUUUAUUCUAACUCCUGCCAAAAUUACAACAGAGGAUUGAGCAUCA
B6: chr1:163122491:163122492:-_ENSG00000143248_ENST00000313961|hu_hu|FALSE|FALSE (ssRNA)
RNA: GGGAGUUCUACAGUCCGACGAUCGGCAAUCCAGAACUCAAGGUUUUCCUCACUGAAUUCAGACUUCAGGAAACUUUUGAAACUGGCAAGUCCAUAGUUGUUCUGCAGGAGUUUGUCCAGGGAAUCACGCCACUGCAGGGCCUCCAACAGAGGAUUGAGCAUCA

This is one part of the list.

For this test, the target named is T1, UNK ZnF1-3. Nature of the test: nsRBNS (natural sequence RNA bind-n-seq); RBNS binding buffer (assumed for nsRBNS): 25 mM Tris pH 7.5, 150 mM KCl, 3 mM MgCl2, 0.01% Triton X-100, 500 ug/ml BSA, 20 U/ml SUPERase-In, 4 C; UNK is unkempt and MSI1 is Musashi-1; names of the RNAs are library labels; protein concentration not given here; high values mean tight binding.
Take B1: the binding signal came to 0.64 enrichment R.

On to B2, for which the binding signal was 2.79 enrichment R.

B3: the binding signal was 1.17 enrichment R.

B4 showed a binding signal of 1.15 enrichment R.

Molecule B5 gave a binding signal of 0.662 enrichment R.

Take B6: the binding signal stood at 1 enrichment R.

Values taken from article PMC12136788.
